The values below come from article PMC4336329 (PLoS ONE, 2015).

In all, about 310,000 compounds went through this assay and about 14,000 (4.5%) showed an effect of 50% or more. Effects have a minus sign here. This is one part of the list.
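Also: peak tail current of the secondary pulse compared with the same well before compound.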

Chain of human ether-à-go-go-related gene (hERG) potassium channel (Q12809 whole entry, looked up): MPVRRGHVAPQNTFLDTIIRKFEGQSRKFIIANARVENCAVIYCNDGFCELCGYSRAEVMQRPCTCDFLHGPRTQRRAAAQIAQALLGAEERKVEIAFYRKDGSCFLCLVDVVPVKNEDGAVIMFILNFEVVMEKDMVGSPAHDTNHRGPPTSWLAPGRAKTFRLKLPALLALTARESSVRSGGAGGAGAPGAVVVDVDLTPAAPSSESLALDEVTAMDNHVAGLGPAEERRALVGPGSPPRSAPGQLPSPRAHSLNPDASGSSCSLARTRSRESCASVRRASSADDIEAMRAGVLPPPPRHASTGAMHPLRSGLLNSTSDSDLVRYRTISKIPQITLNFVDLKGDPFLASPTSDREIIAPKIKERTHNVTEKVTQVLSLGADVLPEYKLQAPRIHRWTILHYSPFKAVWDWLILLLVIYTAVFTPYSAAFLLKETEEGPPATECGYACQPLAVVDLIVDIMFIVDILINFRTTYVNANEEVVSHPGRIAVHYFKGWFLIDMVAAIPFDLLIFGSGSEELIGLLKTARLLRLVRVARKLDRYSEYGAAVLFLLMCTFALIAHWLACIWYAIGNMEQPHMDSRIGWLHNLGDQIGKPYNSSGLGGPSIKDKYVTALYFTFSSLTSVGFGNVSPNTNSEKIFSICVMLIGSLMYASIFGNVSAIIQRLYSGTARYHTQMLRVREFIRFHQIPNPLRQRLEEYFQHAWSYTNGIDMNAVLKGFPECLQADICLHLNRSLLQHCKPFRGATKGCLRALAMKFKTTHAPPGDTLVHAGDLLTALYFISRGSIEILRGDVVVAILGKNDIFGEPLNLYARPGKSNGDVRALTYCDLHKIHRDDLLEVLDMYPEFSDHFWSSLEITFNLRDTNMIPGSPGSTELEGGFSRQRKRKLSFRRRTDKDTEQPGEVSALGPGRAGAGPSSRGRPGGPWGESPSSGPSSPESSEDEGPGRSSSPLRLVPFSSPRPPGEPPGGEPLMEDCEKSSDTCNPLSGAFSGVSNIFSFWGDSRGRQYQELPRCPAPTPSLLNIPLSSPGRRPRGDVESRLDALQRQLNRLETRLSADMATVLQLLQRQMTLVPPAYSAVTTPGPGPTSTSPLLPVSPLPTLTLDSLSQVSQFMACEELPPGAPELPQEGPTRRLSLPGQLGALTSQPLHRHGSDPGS

This test addresses human ether-à-go-go-related gene (hERG) potassium channel (human, UniProt Q12809). Put plainly: primary screen, population patch clamp on CHO cells stably expressing hERG.
In the case of `C=CCn1c(=O)/c(=C\c2ccccn2)s/c1=C(/C#N)C(=O)NCC1CCCO1` (stereo not shown), the “hERG current change (%, negative = inhibition) at 10uM” value is -3.51%.
In the case of `Cc1c(-n2c(SCC(C)C)nc3ccccc3c2=O)c(=O)n(-c2ccccc2)n1C`, the “hERG current change (%, negative = inhibition) at 10uM” value was 0.437%.
The result for `CC(C)OP(=O)(OC(C)C)C(NC(=O)c1ccccc1)C(N)=O` (stereo not shown) reads -3.65%; that for `O=[N+]([O-])c1ccc(NC2CCN(Cc3ccccc3)CC2)c([N+](=O)[O-])c1`, -85.4%; that for `COc1cc(/C=c2\sc3nc(=O)c(-c4ccccc4)nn3c2=O)ccc1OCCC(C)C`, -13.4%.
For the molecule `O=S(=O)(c1ccccc1)N1CCN(C/C=C/c2ccccc2)CC1`, the “hERG current change (%, negative = inhibition) at 10uM” value is reported as -22%.
For the molecule `NC(=S)N/N=C/c1c(O)c(Br)cc2oc3c(c12)CCCC3`, the “hERG current change (%, negative = inhibition) at 10uM” value amounted to 2.84%.
To `CCOC(=O)C1=C(N)N(c2cc(S(=O)(=O)N3CCOCC3)ccc2Cl)C(=O)C1` belongs 5.74%; to `Cc1c(NC(=O)/C(C#N)=C/c2ccc(-c3ccccc3Cl)o2)c(=O)n(-c2ccccc2)n1C`, -30.5%.
To `N#Cc1nc(-c2cccc3ccccc23)oc1N1CCCCC1` belongs 0.975%.
As for `CCCCc1cc(=O)oc2cc(OCC(=O)NCCN3CCOCC3)c(Cl)cc12`, the “hERG current change (%, negative = inhibition) at 10uM” value worked out at 1.96%.
`COc1ccccc1C(=O)NC(=O)COc1ccc(Cl)cc1Cl`: the “hERG current change (%, negative = inhibition) at 10uM” value is reported as -10%.
For the molecule `CN(C)C(=O)/C(=C\c1cccc(Oc2ccccc2)c1)NC(=O)c1ccccc1`, the “hERG current change (%, negative = inhibition) at 10uM” value is on record as -14.6%.
Turning to `CN(CC(=O)Nc1ccc(F)c(F)c1F)C(=O)CCCSc1nc2ccccc2[nH]1`, the “hERG current change (%, negative = inhibition) at 10uM” value was -12.5%.
For the molecule `Clc1ccc(-c2nnc(COc3ncnc4sccc34)o2)cc1`, the “hERG current change (%, negative = inhibition) at 10uM” value is -10.5%.
Regarding `Cc1ccc2c(c1C)NC(C(=O)O)C1CC=CC21` (stereo not shown), the “hERG current change (%, negative = inhibition) at 10uM” value is on record as 12%.
To `COc1ccccc1CNC(=O)c1ccc(-c2ccccc2)cc1` belongs 13.2%.
The result for `CCC1CCCCN1C(=O)c1sc2nc(C)nc(N(CC)CC)c2c1C` (stereo not shown) reads -26.3%; that for `CCc1cccc(NC(=O)c2cnn(-c3ccccc3)c2C)c1`, -56%; that for `COc1cc(/C=C/c2cc(OC(C)=O)c3ccccc3n2)c(OC(C)=O)c([N+](=O)[O-])c1`, 5.5%.
Turning to `CC(C)c1ccc(/C=C/C(=O)O)cc1`, the “hERG current change (%, negative = inhibition) at 10uM” value amounted to 12.5%.
With `CS(=O)(=O)c1ccc(C(=O)OCC(=O)NNC(=O)COc2ccc(Cl)cc2)cc1`, the “hERG current change (%, negative = inhibition) at 10uM” value amounted to 10.1%.
To `CC1(c2ccc(OC(F)F)cc2)NC(=O)N(CC(=O)NC2CCCCC2)C1=O` (stereo not shown) belongs -39.2%; to `COc1ccc(CCCc2nnc(SCC(=O)Nc3ccc(C)c(C)c3)o2)cc1`, 7.64%; to `COc1ccc(NC(=O)N2CCC(c3nc(-c4cccs4)no3)CC2)cc1`, -17.5%.
The result for `CC(=O)c1c(C)nc2ccc(Br)cc2c1-c1ccccc1` reads 2.03%; that for `Cc1csc(NC(=O)CS(=O)(=O)Cc2ccccc2)n1`, -4.71%; that for `COC(=O)c1ccc(CN(C)S(=O)(=O)c2cccs2)cc1`, 12.5%.
On to `Fc1ccc(C2=CC(c3ccc(Br)o3)n3ncnc3N2)cc1` (stereo not shown), for which the “hERG current change (%, negative = inhibition) at 10uM” value is recorded as -19.4%.
Take `CC1(C)CC2=C(CO1)C(=S)NC(c1ccccc1)N2CC1CCCO1` (stereo not shown): the “hERG current change (%, negative = inhibition) at 10uM” value worked out at 9%.
To `Cc1ccccc1NC(=O)NC1(C(=O)NCCCN2CCOCC2)CCCCC1` belongs 0.22%; to `COc1ccc(-c2nc(SCC(=O)NC3CCCC3)c(-c3ccc(OC)cc3)[nH]2)cc1`, -4.56%; to `N/C(CSc1ccc(Cl)cc1)=N\NC(=O)c1ccncc1`, -2.79%.
To `COc1ccc(Cl)cc1CNCCCSc1ncccn1.Cl` belongs 1.74%.
To `COCc1cc(=O)[nH]c(Nc2nc(C)c3cc(OC)ccc3n2)n1` belongs 7.05%.
Consider `CC(COc1ccc(/C=C/c2ccccc2)cc1)[N+](C)(C)C.[I-]` (stereo not shown), for which the “hERG current change (%, negative = inhibition) at 10uM” value is given as -9.04%.
On to `CC(=O)c1cccc(NCC(=O)c2ccc(C)c([N+](=O)[O-])c2)c1`, for which the “hERG current change (%, negative = inhibition) at 10uM” value is reported as -4.73%.
The result for `Cc1ccccc1Cn1cc(NC(=O)c2nn(C)cc2Cl)cn1` reads 1.58%; that for `COc1ccc(N(CC(=O)N/N=C(\C)c2ccc(OC)c(OC)c2)S(=O)(=O)c2ccccc2)cc1`, 19.8%; that for `Cc1cccc(C)c1NC(=O)CSCc1cccc(CSCC(=O)Nc2c(C)cccc2C)n1`, 20.5%.
To `COc1ccc(N2CCN(C(c3ccccc3OC)c3nnnn3Cc3ccco3)CC2)cc1` (stereo not shown) belongs -6.24%; to `CCCCn1c(N)c(N(CC(C)C)C(=O)c2ccco2)c(=O)[nH]c1=O`, 10.4%; to `CCN(CC)C(=O)c1ccc(Oc2ccc([N+](=O)[O-])cc2Cl)cc1`, -17.2%.
`COc1ccc(S(=O)(=O)N2CCN(C(=O)CSC(=S)N3CCCC3)CC2)cc1`: the “hERG current change (%, negative = inhibition) at 10uM” value is listed as -19.6%.
For the molecule `O=C(COC(=O)C1CC2C=CC1C2)Nc1ccccc1F` (stereo not shown), the “hERG current change (%, negative = inhibition) at 10uM” value is reported as -1.38%.
The result for `Cc1ccccc1OC(C)C(=O)N1CCN(c2ccccn2)CC1` (stereo not shown) reads -8.24%; that for `O=C(CCNC(=O)c1ccc(Cl)cc1)Nc1ccncc1`, -9.37%.
In the case of `CC1(C)CNC(=O)c2sc(N3CCCCC3)nc2C1`, the “hERG current change (%, negative = inhibition) at 10uM” value is recorded as 1.87%.
With `Cc1[nH]c2ccccc2c1C(=O)CN1C(=O)NC2(CC(C)CC(C)(C)C2)C1=O` (stereo not shown), the “hERG current change (%, negative = inhibition) at 10uM” value is recorded as -2.43%.
For `Cc1ccc(N=Cc2c(O)ccc3ccccc23)cc1F`, the “hERG current change (%, negative = inhibition) at 10uM” value came out at 23.8%.
With `Nc1ccc(NC(=O)c2cccc(C(=O)Nc3ccc(N)cc3Cl)c2)c(Cl)c1`, the “hERG current change (%, negative = inhibition) at 10uM” value came out at 22%.
With `CCc1ccccc1OCCCOc1ccc(OC)cc1`, the “hERG current change (%, negative = inhibition) at 10uM” value is listed as 14.1%.
With `Cc1ccc(-c2nn(-c3ccccc3)cc2C(=O)N2CCN(C3CCS(=O)(=O)C3)CC2)cc1` (stereo not shown), the “hERG current change (%, negative = inhibition) at 10uM” value is recorded as -68.8%.
`CCC(C(=O)NC(C)(C)C)N(Cc1ccco1)C(=O)Cn1nnc(-c2ccc(F)cc2)n1` (stereo not shown): the “hERG current change (%, negative = inhibition) at 10uM” value is listed as -42.2%.
As for `Cn1cccc1Cc1nnc(SCC(=O)N2CCOCC2)n1CCc1ccccc1`, the “hERG current change (%, negative = inhibition) at 10uM” value is -0.335%.
On to `O=C(COc1ccccc1C(=O)Nc1ccccc1)c1ccc(F)cc1`, for which the “hERG current change (%, negative = inhibition) at 10uM” value stood at 6.1%.
Turning to `COCCN(C(=O)COC(=O)/C=C/c1cccs1)c1c(N)n(Cc2ccccc2)c(=O)[nH]c1=O`, the “hERG current change (%, negative = inhibition) at 10uM” value turned out to be 25.1%.
`O=C(Nc1ccc(Br)cc1)c1ccc2ncsc2c1`: the “hERG current change (%, negative = inhibition) at 10uM” value amounted to 5.07%.
Regarding `CCCCN1C(=O)C(=O)N(CC(=O)Nc2cc(OCC)c(N3CCOCC3)cc2OCC)C1=O`, the “hERG current change (%, negative = inhibition) at 10uM” value was -27%.
As to `O=[N+]([O-])c1ccc(Oc2ccc(S(=O)(=O)N3CCCCC3)cc2)cc1`, the “hERG current change (%, negative = inhibition) at 10uM” value was -31.9%.
To `COc1ccc(C(CC(=O)c2ccccc2)C2CCCCC2=O)cc1` (stereo not shown) belongs -2.89%; to `COC(=O)COc1ccc(S(=O)(=O)NCc2cccnc2)cc1C`, 15.3%; to `CCCCCSc1nc(N2CCOCC2)c2c(c1C#N)CC(C)(C)OC2`, -2.7%.
On to `S=C(NC1CCCC1)N1CCN(c2ncccn2)CC1`, for which the “hERG current change (%, negative = inhibition) at 10uM” value was -19.3%.
To `CCCCC1CCC(C(=O)Nc2ccc(N3CCOCC3)cc2N2CCOCC2)CC1` (stereo not shown) belongs -33.9%; to `COC(=O)c1[nH]c2cc(OC)ccc2c1NC(=O)c1c(F)cccc1F`, 2.79%.
The result for `COc1ccc([N+](=O)[O-])cc1NC(=S)NC(=O)C(C)(C)C` reads 7.53%; that for `C=CCNC(=O)c1onc(CSc2cccc3ccccc23)c1C(=O)O`, 6.34%; that for `c1cn(-c2ncnc3sc4c(c23)CCCC4)cn1`, -3.98%.
To `Cn1cc(C(=O)Nc2ccc(Cl)c(Cl)c2)cn1` belongs -31.9%.
Consider `Cc1ccc(CN2C(=O)CNC2=S)cc1`, for which the “hERG current change (%, negative = inhibition) at 10uM” value worked out at 9.68%.
Regarding `Cc1ccc(C(=O)Nc2ccccc2N2CCCCC2)cc1[N+](=O)[O-]`, the “hERG current change (%, negative = inhibition) at 10uM” value is reported as -1.26%.
The result for `Cc1cc(OC(=O)c2ccc3ccccc3c2)c([N+](=O)[O-])c(=O)[nH]1` reads 22.1%; that for `CC1(C)CN=C(Nc2nc3ccccc3s2)S1`, -9.65%.
As for `O=C(c1ccc(N2CCOCC2)c([N+](=O)[O-])c1)N1CCCC(C(F)(F)F)C1` (stereo not shown), the “hERG current change (%, negative = inhibition) at 10uM” value was 2.23%.
The result for `CC(C)(CNC(=O)CCC1CCCC1)CNC(=O)CCC1CCCC1` reads -27.9%; that for `O=C(CN1C(=O)/C(=C/c2ccccc2F)Sc2ccccc21)NCc1cccnc1`, -30.7%; that for `COC(=O)Cc1ccc(OC(=O)CCS(=O)(=O)c2ccc(Cl)cc2)cc1`, 22%.
For the molecule `Cc1cc(C)c(S(=O)(=O)N2CCCOC2CNC(=O)C(=O)NCc2ccccn2)c(C)c1` (stereo not shown), the “hERG current change (%, negative = inhibition) at 10uM” value is listed as -11.9%.
The result for `CCCOc1ccc(CNC(=S)NCc2ccc(OC(C)C)cc2)cc1` reads 3.51%; that for `CN(CCO)c1ccc(/C=N/Nc2nncc3ccccc23)cc1`, -14.3%.
For `O=C1NC(=O)C(=Cc2ccc(Sc3ccccc3)o2)C(=O)N1`, the “hERG current change (%, negative = inhibition) at 10uM” value worked out at 10.4%.
To `COc1ccc(C2C(C#N)=C(C)NC(C)=C2C#N)c(OC)c1` belongs -3.09%; to `NC1=NC(=Nc2ccccc2)c2ccccc21`, 8.33%.
The result for `Cc1cc(C)cc(OCC(=O)O/N=C(\N)c2ccccn2)c1` reads -6.54%.
To `O=C(CSc1ncnc2c1cnn2-c1ccc(F)cc1)NCC1CCCO1` (stereo not shown) belongs 13.7%; to `O=C(NCCCN1CCCC1)C1CCC(=O)N1C1CCCCC1` (stereo not shown), 12.9%.
On to `COc1ccccc1-c1nnc(C2CCN(S(=O)(=O)c3ccccc3[N+](=O)[O-])CC2)o1`, for which the “hERG current change (%, negative = inhibition) at 10uM” value is listed as -45.2%.
